Results published in PubChem BioAssay (EPA / NIEHS).
For part of these data: Shown are results outside the selection of hits, which stands elsewhere. Records with an inconclusive call do not appear. Only a part is listed here, and it is no random draw. More than one record can exist for a structure, and the calls need not agree. Activity calls are given as the source filed them. The calls were made as follows, unless noted: active = hit-call score of the fitted dose curve at least 0.9, where 1 is the maximum; inconclusive = response in the unintended direction; inactive = score below 0.9.

Tests used:
[1] = target: human RAR-related Orphan Receptor beta (RORb), RORB (gene 6096) (UniProt Q92753); assay: ATG_RORb_TRANS: Attagene TRANS-FACTORIAL HepG2 Assay for human RAR-related Orphan Receptor beta (RORb) (AID 2283010)
Outline: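 HepG2 cells transiently transfected with GAL4-UAS reporter units expressing chimeric NR-Gal4 protein; reporter mRNA measured 24 h after dosing by RT-PCR, 6-FAM labelling and capillary electrophoresis. Gain-of-signal fitted relative to DMSO baseline.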

[2] = target: human Retinoid X Receptor beta (RXRb), RXRB (gene 6257) (UniProt P28702); assay: ATG_RXRb_TRANS: Attagene TRANS-FACTORIAL HepG2 Assay for human Retinoid X Receptor beta (RXRb) (AID 2283013)
Outline: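 HepG2 cells were transiently transfected with multiplexed GAL4-UAS reporters and a chimeric RXRb-Gal4 construct, then exposed for 24 h. Reporter mRNA was quantified by RT-PCR, FAM labeling, HpaI digestion and capillary electrophoresis; gain of signal was scored against DMSO.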

[3] = target: human Thyroid Receptor alpha (THRa1), THRA (gene 7067) (UniProt P10827); assay: ATG_THRa1_TRANS: Attagene TRANS-FACTORIAL HepG2 Assay for human Thyroid Receptor alpha (THRa1) (AID 2283014)
Outline: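 Transient HepG2 transfection, NR-Gal4 chimera driving GAL4-UAS reporters; 24 h compound exposure; total RNA, oligo(dT) RT, PCR, fluorescent primer extension, capillary electrophoresis. Upward direction vs DMSO control.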

[4] = target: Nucleoli Translocation, AR (gene 367) (UniProt P10275); assay: UPITT_HCI_U2OS_AR_TIF2_Nucleoli_Antagonist: University of Pittsburgh U2OS Androgen Receptor-Transcriptional Intermediary Factor 2 (AR-TIF2) Antagonism High Content Imaging Assay for Nucleoli Translocation (AID 2283997)
Outline: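 Measured quantity was AR-RFP fluorescence localized to nucleoli in engineered U2OS cells also bearing TIF2-GFP, acquired on automated high-content imagers. Primary testing used 20 uM compound; actives were confirmed in triplicate wells.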

[5] = target: human Retinoic Acid Receptor gamma (RARg), RARG (gene 5916) (UniProt P13631); assay: ATG_RARg_TRANS: Attagene TRANS-FACTORIAL HepG2 Assay for human Retinoic Acid Receptor gamma (RARg) (AID 2283009)
Outline: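 HepG2 transiently transfected with GAL4-UAS reporter units and chimeric NR-Gal4 constructs; 24 h compound exposure. Reporter mRNA quantified by RT-PCR, FAM labeling, HpaI digestion and capillary electrophoresis; gain-of-signal versus DMSO.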

[6] = target: Estrogen receptor (Homo sapiens) (UniProt P03372); assay: NVS_NR_hER: NovaScreen (NVS) Nuclear Receptor Binding Assay for human Estrogen Receptor (ER) (AID 2283348)
Outline: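 Scintillation signal from bound radioligand was measured 18 hours after chemical addition to cell-free MCF7 protein extracts, with DMSO as baseline. Activity was scored as signal loss; compounds ran first at 25 uM in duplicate.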

[7] = target: Estrogen receptor (Homo sapiens) (UniProt P03372); assay: OT_ERa_GFPERaERE_0120: Odyssey Thera (OT) 2-hour HeLa Transcription Induction Assay for Estrogen Receptor (AID 2283382)
Outline: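 HeLa cells were dosed for 2 h, then GFP reporter induction was quantified by fluorescence microscopy with high-content image analysis. Gain of signal fitted against DMSO baseline.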

[8] = TOX21_p53_BLA_p2_viability: Viability Assessment in the Tox21 HCT-116 p53 Agonism Beta-lactamase Assay, Phase 2 (AID 2283591);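 also: compound exposure lasted 16 h at 37 °C; actives lower the ATP signal meaning cytotoxicity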
Outline: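 Cytotoxicity readout: CellTiter-Glo ATP luminescence, 30 min at room temperature, after the beta-lactamase read. Cells were HCT116 exposed 16 h at 37C to compounds pin-transferred at 217-fold dilution from DMSO stocks.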

[9] = target: Nuclear receptor subfamily 1 group I member 2 (Homo sapiens) (UniProt O75469); assay: ATG_PXR_TRANS: Attagene TRANS-FACTORIAL HepG2 Assay for human Pregnane X Receptor (PXR) (AID 2283008)
Outline: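 HepG2 cells transiently transfected with GAL4-UAS reporter units and PXR-Gal4 chimera, exposed 24 h. Reporter mRNA quantified by RT-PCR, fluorescent labelling, HpaI digestion and capillary electrophoresis; gain of signal vs DMSO.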

[10] = read-out: Pselectin, SELP (gene 6403); assay: BSK_4H_Pselectin: BioMAP Diversity Plus: 4H Assay for Pselectin Biomarker Activity (AID 2283026; active = hit-call score of the fitted dose curve at least 0.9, where 1 is the maximum; inactive = score below 0.9); conditions: actives raise or lower the signal; primary human endothelial cells (HUVEC)
Outline: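 Primary human umbilical vein endothelial cells were treated 24 h, and cell-surface P-selectin was then quantified by ELISA. Bidirectional fit versus DMSO; cytotoxicity checked in parallel cultures by SRB total-protein staining.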

[11] = read-out: Monocyte Chemoattractant Protein-1 (MCP1), CCL2 (gene 6347); assay: BSK_LPS_MCP1: BioMAP Diversity Plus: LPS Assay for Monocyte Chemoattractant Protein-1 (MCP1) Biomarker Activity (AID 2283081; active = hit-call score of the fitted dose curve at least 0.9, where 1 is the maximum; inactive = score below 0.9;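 also: secreted MCP-1 protein quantified by ELISA in culture supernatant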); conditions: actives raise or lower the signal; primary human HUVEC with PBMC
Outline: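 ELISA read-out of MCP-1 after 24 h chemical dosing of a human umbilical vein endothelial cell/peripheral blood mononuclear cell co-culture stimulated with LPS. Gain or loss of signal fitted relative to DMSO controls.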

[12] = ATG_XTT_Cytotoxicity: Cytotoxicity Assessment in the Attagene TRANS-FACTORIAL HepG2 Assay (AID 2283584);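 as to AC50: cells exposed to compound for 24 h before reading; active means loss of viability signal versus DMSO baseline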
Outline: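 XTT readout of cell number in transfected HepG2 cells, 24 h post-dosing; DMSO serves as negative control and baseline, with activity taken as loss of viability signal.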

[13] = Tanguay_ZF_120hpf_PE_legacy: (Legacy) Oregon State University Tanguay Lab 120 Hour Post-fertilization zebrafish Assay for Pericardial Edema (AID 2283640)
[14] = Tanguay_ZF_120hpf_TR_legacy: (Legacy) Oregon State University Tanguay Lab 120 Hour Post-fertilization zebrafish Assay for Touch Response (AID 2283667)
[15] = ACEA_AR_agonist_AUC_viability: ACEA Biosciences xCELLigence Real-Time Cell Analysis on Androgen Receptor Agonism for Viability (AID 2283775);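 also: viability read 80 hours after compound addition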
Outline: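 Real-time impedance tracking of 22Rv1 growth, readings every 5 min for 5 h then hourly; area-under-curve viability endpoint at 80 hours, relative to DMSO. Compounds at eight concentrations, 1:4 steps, top 100 uM, n = 2.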

[16] = target: Retinoic acid receptor RXR-alpha (Homo sapiens) (UniProt P19793); assay: ATG_RXRa_TRANS: Attagene TRANS-FACTORIAL HepG2 Assay for human Retinoid X Receptor alpha (RXRa) (AID 2283012)
Outline: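 HepG2 cells transiently transfected with GAL4-UAS reporter units and chimeric RXRa-Gal4 protein, treated 24 h. Reporter mRNA measured by RT-PCR, fluorescent labelling, HpaI digestion and capillary electrophoresis. Induction fitted against DMSO.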

[17] = BSK_3C_Vis: BioMAP Diversity Plus: 3C Assay for Morphology Visualization (AID 2283025; active = hit-call score of the fitted dose curve at least 0.9, where 1 is the maximum; inactive = score below 0.9;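 also: light microscopy image of cell morphology used as background control; fitted both ways so gain or loss versus DMSO counts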); conditions: primary human endothelial cells (HUVEC)
Outline: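 Human umbilical vein endothelial cell morphology was inspected by light microscopy 24 h after chemical dosing; scored bidirectionally relative to DMSO.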

[18] = read-out: Monocyte Chemoattractant Protein-1 (MCP1), CCL2 (gene 6347); assay: BSK_CASM3C_MCP1: BioMAP Diversity Plus: CASM3C Assay for Monocyte Chemoattractant Protein-1 (MCP1) Biomarker Activity (AID 2283046; active = hit-call score of the fitted dose curve at least 0.9, where 1 is the maximum; inactive = score below 0.9); conditions: actives raise or lower the signal; primary human coronary artery smooth muscle cells
[19] = read-out: Epidermal growth factor receptor (EGFR), EGFR (gene 1956); assay: BSK_hDFCGF_EGFR: BioMAP Diversity Plus: hDFCGF Assay for Epidermal growth factor receptor (EGFR) Biomarker Activity (AID 2283057; active = hit-call score of the fitted dose curve at least 0.9, where 1 is the maximum; inactive = score below 0.9); conditions: actives raise or lower the signal; primary human foreskin fibroblasts
Outline: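 Primary human foreskin fibroblasts (hDFCGF system), sampled 24 h after dosing; EGFR quantified by ELISA. Bidirectional fit relative to DMSO baseline; SRB total-protein staining in parallel cultures for cytotoxicity.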

[20] = read-out: Monokine induced gamma interferon (MIG), CXCL9 (gene 4283); assay: BSK_hDFCGF_MIG: BioMAP Diversity Plus: hDFCGF Assay for Monokine induced gamma interferon (MIG) Biomarker Activity (AID 2283063; active = hit-call score of the fitted dose curve at least 0.9, where 1 is the maximum; inactive = score below 0.9); conditions: actives raise or lower the signal; primary human foreskin fibroblasts
Outline: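 Fibroblasts (human foreskin, primary) dosed, 24 h, MIG by ELISA; fit bidirectional vs DMSO.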

[21] = read-out: E-selectin (Homo sapiens) (UniProt P16581); assay: BSK_LPS_Eselectin: BioMAP Diversity Plus: LPS Assay for Eselectin Biomarker Activity (AID 2283077; active = hit-call score of the fitted dose curve at least 0.9, where 1 is the maximum; inactive = score below 0.9); conditions: actives raise or lower the signal; primary human HUVEC with PBMC
Outline: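 ELISA readout of E-selectin, 24 h post-dose, HUVEC + PBMC co-culture (LPS system). Gain or loss of signal vs DMSO baseline, bidirectional fit.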

[22] = read-out: Monocyte Chemoattractant Protein-1 (MCP1), CCL2 (gene 6347); assay: BSK_SAg_MCP1: BioMAP Diversity Plus: SAg Assay for Monocyte Chemoattractant Protein-1 (MCP1) Biomarker Activity (AID 2283090; active = hit-call score of the fitted dose curve at least 0.9, where 1 is the maximum; inactive = score below 0.9); conditions: actives raise or lower the signal; primary human HUVEC with PBMC
Outline: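 MCP-1 levels in the endothelial–PBMC SAg co-culture were quantified by ELISA at 24 h post-dosing; both increases and decreases versus DMSO scored. Cytotoxicity monitored by SRB total protein in parallel cultures.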

[23] = target: human Endothelin Receptor Type A (ETA), EDNRA (gene 1909) (UniProt P25101); assay: NVS_GPCR_hETA: NovaScreen (NVS) G Protein-Coupled Receptor Assay for human Endothelin Receptor Type A (ETA) (AID 2283265)
Outline: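 Cell-free radioligand displacement using SH-SY5Y-derived protein, 3 h incubation, filter-based scintillation counting. Primary screen in duplicate at 25 uM; actives then run in concentration-response up to 50 uM; loss of binding fitted versus DMSO.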

[24] = target: chimpanzee Androgen Receptor (AR), AR (gene 747460) (UniProt O97775); assay: NVS_NR_cAR: NovaScreen (NVS) Nuclear Receptor Binding Assay for chimpanzee Androgen Receptor (AR) (AID 2283346);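 also: radioligand displacement from AR measured by scintillation counting in a cell-free assay; a loss of bound radioligand signal versus DMSO counts as binding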
Outline: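 Cell-free competition binding with insect-cell (Sf9/Sf21) extracted chimpanzee AR; scintillation signal from lysate at 72 h. Screened in duplicate at 25 uM, then concentration-response for actives; fitting relative to DMSO.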

[25] = target: human Thyroid Receptor Alpha (TRa), THRA (gene 7067) (UniProt P10827); assay: NVS_NR_hTRa_Antagonist: NovaScreen (NVS) Nuclear Receptor Binding Assay for human Thyroid Receptor Alpha Antagonism (TRa) (AID 2283362);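 also: activity is loss of signal relative to DMSO baseline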
Outline: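 AlphaLISA chemiluminescent immunoassay readout, taken 1 h post-dosing in a cell-free system with extracted protein. Activity was scored as signal loss against DMSO negative control, from duplicate single-concentration (25 uM) testing followed by concentration-response follow-up.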

[26] = CCTE_Deisenroth_5AR_NBTE_donor: CCTE's 5alpha-reductase NanoBRET Target Engagement Assay […], Deisenroth Lab (AID 2284319; active = hit-call score of the fitted dose curve at least 0.9, where 1 is the maximum; inactive = score below 0.9); conditions: actives raise or lower the signal
Outline: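 HEK293T cells transiently expressing SRD5A2-NanoLuc, exposed 5 h to chemicals (8 points, 10 nM - 29.9 uM), with testosterone tracer for the final 2 h. Donor luminescence at 460 nm read after Nano-Glo substrate plus extracellular NanoLuc inhibitor; bidirectional fit versus DMSO.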

Measured: AC50

COc1cc(/C=C/C(=O)CC(=O)/C=C/c2ccc(O)c(OC)c2)ccc1O
inactive: [1] | [2] | [3]
active: [4] 15.3 µM

OC[C@@H](O)[C@@H](O)[C@H](O)[C@@H](O)CO
inactive: [5] | [6] | [7] | [8]

CC(O)C#CC(C)O (stereo not given)
inactive: [1]

CC(=O)S[C@@H]1CC2=CC(=O)CC[C@]2(C)[C@H]2CC[C@@]3(C)[C@@H](CC[C@@]34CCC(=O)O4)[C@H]12
inactive: [9] | [12] | [8] | [13] | [14]
active: [10] 29.4 µM | [11] 20.8 µM | [15] 33.4 µM

NC(=NCCCCCCN=C(N)/N=C(\N)Nc1ccc(Cl)cc1)/N=C(\N)Nc1ccc(Cl)cc1
inactive: [19] | [23] | [12]
active: [16] 26.2 µM | [17] 4.76 µM | [18] 7.34 µM | [20] 11.1 µM | [21] 4.89 µM | [22] 5.01 µM | [24] 22.5 µM | [25] 13.1 µM | [12] 27.2 µM | [26] 66.2 µM
